Assay results from patent publication US20200085917A1 (UNIVERSITY OF PITTSBURGH OF THE COMMONWEALTH SYSTEM OF …, published 2020).

Legend:
Test in all cases: GST pull-down, LC-MS/MS
Gstk1_IPI:IPI00121051.3 = molecular target: T1, Gstk1_IPI:IPI00121051.3 (mouse, UniProt Q9DCM2 1-226)
T1 sequence (looked up): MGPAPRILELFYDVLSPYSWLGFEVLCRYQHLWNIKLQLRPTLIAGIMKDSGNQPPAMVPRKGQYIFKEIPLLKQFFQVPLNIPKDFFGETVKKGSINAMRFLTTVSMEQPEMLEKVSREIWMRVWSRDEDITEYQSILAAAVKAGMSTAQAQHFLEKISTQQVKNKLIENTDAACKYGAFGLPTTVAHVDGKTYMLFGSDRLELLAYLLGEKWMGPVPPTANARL

Rdh14_IPI:IPI00112377.1 = molecular target: T2, Rdh14_IPI:IPI00112377.1 (mouse, UniProt Q9ERI6 1-334)
T2 sequence (looked up): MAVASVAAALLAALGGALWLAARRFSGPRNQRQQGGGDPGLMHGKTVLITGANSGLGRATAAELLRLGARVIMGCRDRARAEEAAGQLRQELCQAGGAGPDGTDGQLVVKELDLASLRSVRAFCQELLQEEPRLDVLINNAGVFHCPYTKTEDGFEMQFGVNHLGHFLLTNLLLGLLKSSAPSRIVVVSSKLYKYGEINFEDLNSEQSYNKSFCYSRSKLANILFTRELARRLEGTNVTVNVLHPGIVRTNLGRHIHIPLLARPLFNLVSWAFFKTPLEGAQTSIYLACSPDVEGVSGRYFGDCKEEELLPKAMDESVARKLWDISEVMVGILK

Ywhaz_IPI:IPI00116498.1 = molecular target: T3, Ywhaz_IPI:IPI00116498.1 (mouse, UniProt P63101 1-245)
T3 sequence (looked up): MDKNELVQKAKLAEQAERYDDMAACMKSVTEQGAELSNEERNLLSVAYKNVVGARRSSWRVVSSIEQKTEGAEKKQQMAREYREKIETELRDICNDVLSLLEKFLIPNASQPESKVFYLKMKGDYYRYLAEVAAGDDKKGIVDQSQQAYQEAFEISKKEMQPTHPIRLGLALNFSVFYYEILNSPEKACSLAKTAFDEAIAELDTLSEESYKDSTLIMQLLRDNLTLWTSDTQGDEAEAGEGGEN

binding result (Gstk1_IPI:IPI00121051.3): no binding
binding result (Rdh14_IPI:IPI00112377.1): no binding
binding result (Ywhaz_IPI:IPI00116498.1): no binding
B1: GST alone (other)
chain: not shown
notes: Negative control of the pull-downs; also called control GST
